The supplement of paper PMC8728848
The list shows a part of the results.

What was measured:
Assay in all cases: glycan array binding signal (z-score within array); higher = stronger binding
Conditions in all cases: glycan notation: IUPAC condensed, linker removed
[1] = molecular target: GalNAc(a1-3)GalNAc(b1-3)Gal(a1-4)Gal(b1-4)GlcNAc
Procedure, shortened: (§1)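 Glycan array data came from 3228 arrays in the Consortium for Functional Glycomics database, and only arrays with an available protein sequence were kept. Glycan names were put into IUPAC-condensed notation, and columns mapping to the same glycan were averaged. The binding signal is a within-array Z-score, averaged across arrays of one protein sequence run at different concentrations or buffers and across linkers. A negative Z-score can be read as non-binding.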

GalNAc(b1-3)Gal = molecular target: GalNAc(b1-3)Gal
Procedure, shortened: as §1

[2] = molecular target: GalNAc(b1-3)Gal(a1-4)Gal(b1-4)GlcNAc
Procedure, shortened: as §1

[3] = molecular target: GalNAc(b1-3)Gal(a1-4)Gal(b1-4)GlcNAc(b1-3)Gal(b1-4)Glc
Procedure, shortened: as §1

[4] = molecular target: GalNAc(b1-3)Gal(a1-6)Gal(b1-4)Glc
Procedure, shortened: as §1

GalNAc(b1-3)GalNAc = molecular target: GalNAc(b1-3)GalNAc
Procedure, shortened: as §1

GalNAc(b1-3)GlcNAc = molecular target: GalNAc(b1-3)GlcNAc
Procedure, shortened: as §1

GalNAc(b1-4)Gal(b1-4)Glc = molecular target: GalNAc(b1-4)Gal(b1-4)Glc
Procedure, shortened: as §1

GalNAc(b1-4)GlcNAc = molecular target: GalNAc(b1-4)GlcNAc
Procedure, shortened: as §1

[5] = molecular target: GalNAc(b1-4)GlcNAc(b1-2)Man
Procedure, shortened: as §1

[6] = molecular target: GalNAc(b1-4)GlcNAc(b1-2)Man(a1-3)[GalNAc(b1-4)GlcNAc(b1-2)Man(a1-6)]Man(b1-4)GlcNAc(b1-4)GlcNAc
Procedure, shortened: as §1

[7] = molecular target: GalNAc(b1-4)GlcNAc(b1-3)GalNAc(b1-4)GlcNAc
Procedure, shortened: as §1

GalNAc(b1-4)GlcNAc6S = molecular target: GalNAc(b1-4)GlcNAc6S
Procedure, shortened: as §1

GalNAc(b1-6)GalNAc = molecular target: GalNAc(b1-6)GalNAc
Procedure, shortened: as §1

GalNAc3S(b1-4)GlcNAc = molecular target: GalNAc3S(b1-4)GlcNAc
Procedure, shortened: as §1

GalNAc3S(b1-4)GlcNAc3S = molecular target: GalNAc3S(b1-4)GlcNAc3S
Procedure, shortened: as §1

[8] = molecular target: GalNAc3S(b1-4)[Fuc(a1-3)]GlcNAc
Procedure, shortened: as §1

GalNAc4S6S(b1-4)GlcNAc = molecular target: GalNAc4S6S(b1-4)GlcNAc
Procedure, shortened: as §1

GalNAc6S(b1-4)GlcNAc = molecular target: GalNAc6S(b1-4)GlcNAc
Procedure, shortened: as §1

Glc(a1-4)Glc = molecular target: Glc(a1-4)Glc
Procedure, shortened: as §1

[9] = molecular target: Glc(a1-4)Glc(a1-4)Glc(a1-4)Glc
Procedure, shortened: as §1

Glc(a1-6)Glc(a1-6)Glc = molecular target: Glc(a1-6)Glc(a1-6)Glc
Procedure, shortened: as §1

[10] = molecular target: Glc(a1-6)Glc(a1-6)Glc(a1-6)Glc
Procedure, shortened: as §1

Glc(b1-4)Glc = molecular target: Glc(b1-4)Glc
Procedure, shortened: as §1

Glc(b1-6)Glc = molecular target: Glc(b1-6)Glc
Procedure, shortened: as §1

GlcA(b1-3)Gal = molecular target: GlcA(b1-3)Gal
Procedure, shortened: as §1

GlcA(b1-3)GlcNAc = molecular target: GlcA(b1-3)GlcNAc
Procedure, shortened: as §1

GlcA(b1-6)Gal = molecular target: GlcA(b1-6)Gal
Procedure, shortened: as §1

[11] = molecular target: GlcA3S(b1-3)Gal(b1-4)GlcNAc(b1-2)Man
Procedure, shortened: as §1

[12] = molecular target: GlcA3S(b1-3)Gal(b1-4)GlcNAc(b1-3)Gal(b1-4)Glc
Procedure, shortened: as §1

[13] = molecular target: GlcNAc(a1-3)Gal(b1-4)GlcNAc
Procedure, shortened: as §1

[14] = molecular target: GlcNAc(a1-4)Gal(b1-3)GlcNAc
Procedure, shortened: as §1

[15] = molecular target: GlcNAc(a1-4)Gal(b1-4)GalNAc
Procedure, shortened: as §1

[16] = molecular target: GlcNAc(a1-4)Gal(b1-4)GlcNAc
Procedure, shortened: as §1

[17] = molecular target: GlcNAc(a1-4)Gal(b1-4)GlcNAc(b1-3)Gal(b1-4)Glc
Procedure, shortened: as §1

[18] = molecular target: GlcNAc(a1-4)Gal(b1-4)GlcNAc(b1-3)Gal(b1-4)GlcNAc
Procedure, shortened: as §1

[19] = molecular target: GlcNAc(a1-4)Gal(b1-4)GlcNAc(b1-3)Gal(b1-4)GlcNAc(b1-3)Gal(b1-4)GlcNAc
Procedure, shortened: as §1

[20] = molecular target: GlcNAc(a1-4)Gal(b1-4)GlcNAc(b1-3)Gal(b1-4)[Fuc(a1-3)]GlcNAc(b1-3)Gal(b1-4)[Fuc(a1-3)]GlcNAc
Procedure, shortened: as §1

B1: PVL (Psathyrella velutina), Q309D1_9AGAR (protein)
chain: MSVVVISQALPVPTRIPGVADLVGFGNGGVYIIRNSLLIQVVKVINNFGYDAGGWRVEKHVRLLADTTGDNQPDVVGFGENGVWISTNNGNNTFVDPPKMVLANFAYAAGGWRVEKHIRFMADLRKTGRADIVGFGDGGIYISRNNGGGQFAPAQLALNNFGYAQGWRLDRHLRFLADVTGDGLLDVVGFGENQVYIARNSGNGTFQPAQAVVNNFCIGAGGWTISAHPRVVADLTGDRKADILGFGVAGVYTSLNNGNGTFGAVNLVLKDFGVNSGWRVEKHVRCVSSLTNKKVGDIIGFGDAGVYVALNNGNGTFGPVKRVIDNFGYNQGWRVDKHPRFVVDLTGDGCADIVGFGENSVWACMNKGDGTFGPIMKLIDDMTVSKGWTLQKTVRYAANLYL
glycan array binding signal (z-score) [1]: -0.348 | glycan array binding signal (z-score) (GalNAc(b1-3)Gal): -0.243 | glycan array binding signal (z-score) [2]: -0.379 | glycan array binding signal (z-score) [3]: -0.269 | glycan array binding signal (z-score) [4]: -0.308 | glycan array binding signal (z-score) (GalNAc(b1-3)GalNAc): 1.31 | glycan array binding signal (z-score) (GalNAc(b1-3)GlcNAc): -0.367 | glycan array binding signal (z-score) (GalNAc(b1-4)Gal(b1-4)Glc): -0.367 | glycan array binding signal (z-score) (GalNAc(b1-4)GlcNAc): -0.225 | glycan array binding signal (z-score) [5]: -0.338 | glycan array binding signal (z-score) [6]: -0.355 | glycan array binding signal (z-score) [7]: -0.319 | glycan array binding signal (z-score) (GalNAc(b1-4)GlcNAc6S): -0.343 | glycan array binding signal (z-score) (GalNAc(b1-6)GalNAc): -0.317 | glycan array binding signal (z-score) (GalNAc3S(b1-4)GlcNAc): -0.357 | glycan array binding signal (z-score) (GalNAc3S(b1-4)GlcNAc3S): -0.369 | glycan array binding signal (z-score) [8]: -0.356 | glycan array binding signal (z-score) (GalNAc4S6S(b1-4)GlcNAc): -0.362 | glycan array binding signal (z-score) (GalNAc6S(b1-4)GlcNAc): -0.333 | glycan array binding signal (z-score) (Glc(a1-4)Glc): -0.366 | glycan array binding signal (z-score) [9]: -0.34 | glycan array binding signal (z-score) (Glc(a1-6)Glc(a1-6)Glc): -0.373 | glycan array binding signal (z-score) [10]: -0.341 | glycan array binding signal (z-score) (Glc(b1-4)Glc): -0.365 | glycan array binding signal (z-score) (Glc(b1-6)Glc): -0.37 | glycan array binding signal (z-score) (GlcA(b1-3)Gal): -0.369 | glycan array binding signal (z-score) (GlcA(b1-3)GlcNAc): -0.352 | glycan array binding signal (z-score) (GlcA(b1-6)Gal): -0.358 | glycan array binding signal (z-score) [11]: -0.368 | glycan array binding signal (z-score) [12]: -0.332 | glycan array binding signal (z-score) [13]: 3.02 | glycan array binding signal (z-score) [14]: 2.8 | glycan array binding signal (z-score) [15]: 0.695 | glycan array binding signal (z-score) [16]: 2.67 | glycan array binding signal (z-score) [17]: 3.58 | glycan array binding signal (z-score) [18]: 2.81 | glycan array binding signal (z-score) [19]: 4.19 | glycan array binding signal (z-score) [20]: 1.73
